Measured values: PubChem BioAssay AID1347071 (National Center for Advancing Translational Sciences (NCATS), 2019)
Hit rate of the full screen: of about 410,000 compounds, about 260 (0.063%) were called active. This list was built around the results that the source calls inconclusive (neither active nor inactive); the mix of calls is not that of the screen. Calls follow the shape of the dose curve; as a rule, active = well fitted activation curve with a large enough effect; inconclusive = small, poorly fitted or top-dose-only effect; inactive = no such curve, though single readings can be large or run the other way. Potencies beside an inconclusive call are fits to weak or partial responses and may not hold up.

Test: qHTS for compounds that reverse cellular toxicity of Amyloid beta (A-beta) peptide in yeast: Primary Screen; also: nearly all actives have a fitted effect of over 55% in size
Conditions: yeast expressing A-beta42, growth rescue, OD600, 48 h; growth rescue: at 46.1 µM (top of the series) unless noted
Description: The A-beta peptide is produced by the processing of the amyloid precursor protein (APP) by two proteases, beta and gamma secretases. […] A-beta42 is regarded as the most amyloidogenic form due to its hydrophobicity; however, precisely how A-beta42 induces neurotoxicity is unclear. To understand further this biology and its potential therapeutic implications for human neurodegenerative disease, a quantitative high-throughput screen for compounds that reverse the cellular toxicity of the A-beta peptide was developed. A yeast based screen was used because it recapitulates the salient feature of protein mis-folding disorder accurately. This cell-based phenotypic screen provides a significant, unbiased advantage by letting the compounds and models inform us which proteins or pathways are most relevant. The ideal chemical candidates would therefore have activity in both our primary yeast and secondary neuronal toxicity assays, as well as in mouse models. They will be valuable tools for dissecting diverse protein homeostasis pathologies and could potentially become the focus for future pre-clinical development. For this luminescence assay, inhibition of A-beta rescues the toxic effect in the yeast cell, resulting in increase of signals and the desired phenotype of "Activator". This screen is run against the Molecular Libraries Small Molecule Repository (MLSMR) and the NCGC Sytravon Library Collection.
NIH Chemical Genomics Center [NCGC]
NIH Molecular Libraries Probe Centers Network [MLPCN]
Assay Submitter (PI): Susan Lindquist, Whitehead Institute, Massachusetts Institute of Technology
[1] Vassar R,et al (1999). Beta-secretase cleavage of Alzheimer's amyloid precursor protein by the transmembrane aspartic protease BACE. Science. 286: 735-741.
[2] Yan R, et al (1999). Membrane-anchored aspartyl protease with Alzheimer's disease beta-secretase activity. Nature. 402: 533-536.
Two and a half microliter / well of yeast growth medium were dispensed in a 1536 assay plate. Compounds were pinned using the Kalypsys robotic system followed by addition of 2.5 uL / well yeast solution. The assay plates were incubated at 30 C. After 48 hr, the absorbance signal at 600 nm was obtained using the PerkinElmer ViewLux plate reader to assess yeast growth. The data was normalized to the positive control of an equimolar mixture of ferric chloride (FeCl3) and clioquinol and to the negative control DMSO.
Potency is read from the fitted curve at half-maximal effect; tags tell the direction and shape of the fitted curve.

SMILES	Potency	growth rescue
CC1=NN(Cc2c[nH]c3ccccc23)C(C)(C)C1	inconclusive: 15.8 µM [activator, partial curve, poor fit]	–
CCc1cccc(CC)c1NC(=S)N1CC2CC(C1)c1cccc(=O)n1C2 (configuration not stated)	inconclusive: 22.4 µM [activator, partial curve, poor fit]	–
COc1ccc(C(=O)C(C)(C)NO)cc1	inconclusive: 3.55 µM [activator, single point]	–
C[C@H]1C[C@@H](C)C(=O)[C@@H]([C@H](O)CC2CC(=O)NC(=O)C2)C1	–	inconclusive: -74.6% [activator]
COc1ccccc1-n1c(-c2cccs2)nc2ccccc2c1=O	–	inactive: -8.85%
CC1=Nc2ccccc2/C1=C/c1c(O)n(C)c(=O)[nH]c1=O	inconclusive: 20 µM [activator, single point]	–
CCc1ccccc1NC(=O)c1cccn(Cc2ccccc2F)c1=O	–	inactive: 5.63%
O=P(Nc1cccc(Cl)c1)(Oc1ccccc1)Oc1ccccc1	inconclusive: 17.8 µM [activator, partial curve, poor fit]	–
CCOP(=O)(C#Cc1ccccc1)C(O)c1ccc(Br)cc1 (configuration not stated)	inconclusive: 15.8 µM [activator, partial curve, poor fit]	–
CCOC(=O)C(O)(c1ccc(NC(=S)NC(=O)c2ccc(Cl)cc2Cl)cc1)C(F)(F)F (configuration not stated)	inconclusive: 2.82 µM [activator, full curve]	–
CCCC(=O)NC(Oc1ccc(OC)cc1)C(Cl)(Cl)Cl (configuration not stated)	inconclusive: 12.6 µM [activator, single point]	–
CCC1=Nc2cc(C(=O)N3CCC4(CC3)OCCO4)ccc2Sc2ccc(Br)cc21	–	inactive: -14.6%
Cc1cc(O)c2c(c1)OC(C)(C)C1=C2CC(C)CC1 (configuration not stated)	–	inactive: -30.8%
O=c1[nH]c2ccccc2n1C1CCN(C(c2cccs2)c2nnnn2Cc2ccccc2)CC1 (configuration not stated)	–	inactive: 4.71%
COC(=O)C1=C(c2ccc(OC(F)(F)F)cc2)C[C@@H]2CC[C@H]1N2C(=O)NCc1ccc(F)cc1	–	inactive: -10.7%
CN1C(=O)C(=Cc2ccccc2OS(=O)(=O)c2ccccc2)C(=O)N(C)C1=O	–	inactive: 8.41%
CCN1CCN(Cc2cc(Br)ccc2O)CC1	–	inactive: 8.06%
COc1ccccc1C=C1C(=O)NC(=S)NC1=O	–	inactive: 10.8%
Cc1ccc(C(O)(c2ccc(C)c(C)c2)C2CN3CCC2CC3)cc1C (configuration not stated)	inconclusive: 14.1 µM [activator, single point]	–

SMILES	Potency	growth rescue
O=c1[nH]c(O)c(C=Nc2ccccc2Sc2ccccc2)c(=O)[nH]1	inconclusive: 5.01 µM [activator, single point]	–
N#Cc1ccc(Cn2cc(C(=O)c3ccco3)c3ccccc32)cc1	inconclusive: 1.41 µM [activator, full curve]	–
C[C@@H]1CC[C@H]2[C@@H](C)C(=O)O[C@@H]3O[C@@]4(C)CC[C@@H]1[C@]32OO4	–	inactive: -40.9%
O=C1NC(=O)N(Cc2ccc(F)cc2)C(=O)/C1=C/c1cccs1	inconclusive: 12.6 µM [activator, partial curve, poor fit]	–
COC(=O)C1=C(c2ccc(F)cc2F)C[C@@H]2CC[C@H]1N2C(=O)N1CCC(O)(c2ccc(Cl)cc2)CC1	inconclusive: 35.5 µM [activator, single point]	–
COCCCNC(=O)c1c(NC(=O)c2ccco2)n(Cc2ccccc2)c2nc3ccccc3nc12	–	inactive: -0.0594%
O=C1NC(=O)N(CCc2ccc(F)cc2)C(=O)/C1=C/c1cccs1	inconclusive: 11.2 µM [activator, partial curve, poor fit]	–
NP(=O)(Oc1ccc(Cl)cc1)Oc1ccc(Cl)cc1	inconclusive: 2 µM [activator, partial curve, poor fit]	–
OC12ONC(c3ccccn3)C1N1CCC2CC1 (configuration not stated)	inconclusive: 10 µM [activator, partial curve]	–
O=C1C(=O)c2ccccc2-c2ccccc21	–	inactive: -94.2%
Cc1ccc(-n2c(/C=C\c3ccc(F)c(F)c3)nc3ccccc3c2=O)c(C)c1	–	inactive: -15.3%
CC(=O)N(C1=NCCCS1)c1ccccc1Cl	inconclusive: 11.2 µM [activator, partial curve, poor fit]	–
CCOc1ccc(N2C(=O)NC(=O)/C(=C/c3cnc(SC)nc3)C2=O)cc1	–	inconclusive: -93.1% [activator]
COc1cccc(NP(=O)(Oc2ccccc2)Oc2ccccc2)c1	–	inactive: 7.53%
Cc1cc(C=C2C(=O)NC(=S)NC2=O)c(C)n1-c1ccc2c(c1)OCO2	inconclusive: 14.1 µM [activator, single point]	–
Cc1cccc(-n2c(O)c(C)c(=O)[nH]c2=S)c1	inconclusive: 14.1 µM [activator, single point]	–
CCOC(=O)C(O)(c1ccc(NC(=O)c2ccc(Cl)c(Cl)c2)cc1)C(F)(F)F (configuration not stated)	inconclusive: 14.1 µM [activator, partial curve, poor fit]	–
CCCNC(=O)N1[C@H]2CC[C@@H]1C(C(=O)OC)=C(c1ccc(Cl)c(C(F)(F)F)c1)C2	–	inconclusive: 7% [activator] [at 46.1 µM, 0% DMSO, 100% iron-clioquinol control]
